These are yes or no findings as the source states them, for the method shown. Some binding calls cover weakened binding; strength is not graded here. For some assays here: Sequences can lack the tags named with a protein. Blank lines part the entries; values can stand above or below the substance they belong to.
How the values were obtained:
Test in all cases: two-hybrid; NKX2-5 fused to GAL4-AD (pGADT7), partners fused to GAL4-DBD (pGBKT7); co-transformed into S. cerevisiae AH109; double transformants selected on -Leu/-Trp, interaction read as growth on high stringency -Ade/-His/-Leu/-Trp plates
[1] = biological target: retinoid X receptor α (human) (UniProt P19793)
[2] = biological target: IKAROS family zinc finger 1 (UniProt Q03267)
IKZF3 = IKZF3 (UniProt O08900)
IKZF5 = biological target: T1, IKZF5 (UniProt Q9H5V7)
T1 sequence: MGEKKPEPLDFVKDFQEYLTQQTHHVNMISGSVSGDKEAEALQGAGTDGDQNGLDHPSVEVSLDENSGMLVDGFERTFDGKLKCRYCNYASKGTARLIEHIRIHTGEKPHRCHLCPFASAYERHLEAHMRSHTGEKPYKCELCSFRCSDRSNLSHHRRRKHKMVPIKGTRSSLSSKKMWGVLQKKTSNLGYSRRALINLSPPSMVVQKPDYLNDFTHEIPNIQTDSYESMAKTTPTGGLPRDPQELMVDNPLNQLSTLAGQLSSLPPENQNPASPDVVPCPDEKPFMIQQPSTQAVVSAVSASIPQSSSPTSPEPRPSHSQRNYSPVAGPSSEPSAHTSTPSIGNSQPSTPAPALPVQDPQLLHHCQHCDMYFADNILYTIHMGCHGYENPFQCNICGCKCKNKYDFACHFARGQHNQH

Sequences of proteins named here, by UniProt entry; tags and fusion partners are left off. A change or cut given only in a name is not applied to a line headed by its entry.
UniProt P19793: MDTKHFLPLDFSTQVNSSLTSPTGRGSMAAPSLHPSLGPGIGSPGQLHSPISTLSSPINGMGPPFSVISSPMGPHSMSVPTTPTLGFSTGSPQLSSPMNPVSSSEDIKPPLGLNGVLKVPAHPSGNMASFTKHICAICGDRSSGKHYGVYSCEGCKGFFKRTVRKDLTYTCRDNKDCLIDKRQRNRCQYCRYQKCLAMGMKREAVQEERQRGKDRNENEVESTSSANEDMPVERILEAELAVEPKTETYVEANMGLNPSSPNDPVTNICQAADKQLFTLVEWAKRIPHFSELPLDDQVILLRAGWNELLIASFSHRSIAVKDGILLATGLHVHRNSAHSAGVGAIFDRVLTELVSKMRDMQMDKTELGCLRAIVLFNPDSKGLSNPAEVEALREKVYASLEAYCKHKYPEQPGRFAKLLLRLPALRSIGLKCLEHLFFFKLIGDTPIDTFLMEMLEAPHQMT
UniProt Q03267: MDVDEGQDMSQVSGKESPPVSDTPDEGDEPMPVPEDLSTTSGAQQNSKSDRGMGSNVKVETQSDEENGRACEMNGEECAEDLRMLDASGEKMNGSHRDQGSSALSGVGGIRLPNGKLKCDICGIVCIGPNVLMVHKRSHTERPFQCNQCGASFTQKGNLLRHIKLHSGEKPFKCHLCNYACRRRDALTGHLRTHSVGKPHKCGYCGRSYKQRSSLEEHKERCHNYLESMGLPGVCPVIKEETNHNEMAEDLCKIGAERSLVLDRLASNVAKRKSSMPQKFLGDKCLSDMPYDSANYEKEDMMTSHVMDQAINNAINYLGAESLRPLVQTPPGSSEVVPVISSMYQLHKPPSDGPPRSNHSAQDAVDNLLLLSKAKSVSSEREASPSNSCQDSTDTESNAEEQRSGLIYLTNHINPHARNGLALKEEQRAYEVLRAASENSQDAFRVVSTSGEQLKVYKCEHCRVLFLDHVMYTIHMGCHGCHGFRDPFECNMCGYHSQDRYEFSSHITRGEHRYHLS
UniProt O08900: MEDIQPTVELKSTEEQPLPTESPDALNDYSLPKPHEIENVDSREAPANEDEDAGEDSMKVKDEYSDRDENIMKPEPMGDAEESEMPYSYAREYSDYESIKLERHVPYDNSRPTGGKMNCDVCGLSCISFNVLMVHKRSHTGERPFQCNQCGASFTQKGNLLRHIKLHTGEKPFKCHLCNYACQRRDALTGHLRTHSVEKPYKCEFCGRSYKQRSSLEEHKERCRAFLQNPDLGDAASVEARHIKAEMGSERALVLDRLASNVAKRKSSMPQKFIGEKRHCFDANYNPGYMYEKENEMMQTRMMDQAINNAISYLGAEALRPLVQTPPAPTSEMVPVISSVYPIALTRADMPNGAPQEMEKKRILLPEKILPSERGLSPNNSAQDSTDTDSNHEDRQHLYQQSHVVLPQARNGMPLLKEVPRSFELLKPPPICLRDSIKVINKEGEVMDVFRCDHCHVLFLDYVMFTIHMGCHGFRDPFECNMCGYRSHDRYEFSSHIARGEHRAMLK
UniProt O89091: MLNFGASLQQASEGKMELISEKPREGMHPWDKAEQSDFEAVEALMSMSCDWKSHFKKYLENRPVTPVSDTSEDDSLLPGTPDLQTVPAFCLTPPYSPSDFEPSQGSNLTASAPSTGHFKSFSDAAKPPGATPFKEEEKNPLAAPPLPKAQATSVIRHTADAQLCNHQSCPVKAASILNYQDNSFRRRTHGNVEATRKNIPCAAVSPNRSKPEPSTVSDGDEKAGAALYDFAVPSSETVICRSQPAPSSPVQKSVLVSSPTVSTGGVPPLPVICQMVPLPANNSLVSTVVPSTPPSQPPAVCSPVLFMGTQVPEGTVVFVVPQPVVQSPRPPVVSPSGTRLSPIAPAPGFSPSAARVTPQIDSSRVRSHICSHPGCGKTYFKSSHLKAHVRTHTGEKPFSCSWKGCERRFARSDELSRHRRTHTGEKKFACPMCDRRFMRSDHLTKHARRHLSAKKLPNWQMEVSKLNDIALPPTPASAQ
UniProt P52952: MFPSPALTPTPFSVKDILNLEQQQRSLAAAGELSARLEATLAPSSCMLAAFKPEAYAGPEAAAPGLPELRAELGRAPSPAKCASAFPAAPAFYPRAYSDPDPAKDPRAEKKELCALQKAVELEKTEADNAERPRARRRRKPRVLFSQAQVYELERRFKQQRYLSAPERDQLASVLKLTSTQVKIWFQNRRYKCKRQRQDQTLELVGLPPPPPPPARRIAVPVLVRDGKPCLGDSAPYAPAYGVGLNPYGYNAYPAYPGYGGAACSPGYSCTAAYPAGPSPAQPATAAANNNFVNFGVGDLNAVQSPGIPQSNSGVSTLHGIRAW
UniProt P13297: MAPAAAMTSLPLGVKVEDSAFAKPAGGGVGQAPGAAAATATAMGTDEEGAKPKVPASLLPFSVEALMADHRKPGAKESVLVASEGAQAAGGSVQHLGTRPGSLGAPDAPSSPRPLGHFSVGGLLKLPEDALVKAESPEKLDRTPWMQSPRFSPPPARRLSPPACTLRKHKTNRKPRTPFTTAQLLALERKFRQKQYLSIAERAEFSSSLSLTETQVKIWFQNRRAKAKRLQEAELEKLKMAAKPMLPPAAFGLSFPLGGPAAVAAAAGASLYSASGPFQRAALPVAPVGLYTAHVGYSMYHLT
UniProt Q99811: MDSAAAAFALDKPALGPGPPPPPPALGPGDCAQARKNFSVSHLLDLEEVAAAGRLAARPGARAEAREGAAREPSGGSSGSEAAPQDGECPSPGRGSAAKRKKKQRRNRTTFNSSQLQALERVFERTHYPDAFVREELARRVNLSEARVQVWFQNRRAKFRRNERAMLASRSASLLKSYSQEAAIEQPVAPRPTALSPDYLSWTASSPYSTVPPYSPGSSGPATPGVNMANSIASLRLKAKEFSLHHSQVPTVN

[3] = biological target: Kruppel-like factor 10 (murine) (UniProt O89091)
NKX2-5 wild type = NKX2-5 wild type (UniProt P52952)
RXRγ = biological target: T2, RXRγ (UniProt P28705)
T2 sequence: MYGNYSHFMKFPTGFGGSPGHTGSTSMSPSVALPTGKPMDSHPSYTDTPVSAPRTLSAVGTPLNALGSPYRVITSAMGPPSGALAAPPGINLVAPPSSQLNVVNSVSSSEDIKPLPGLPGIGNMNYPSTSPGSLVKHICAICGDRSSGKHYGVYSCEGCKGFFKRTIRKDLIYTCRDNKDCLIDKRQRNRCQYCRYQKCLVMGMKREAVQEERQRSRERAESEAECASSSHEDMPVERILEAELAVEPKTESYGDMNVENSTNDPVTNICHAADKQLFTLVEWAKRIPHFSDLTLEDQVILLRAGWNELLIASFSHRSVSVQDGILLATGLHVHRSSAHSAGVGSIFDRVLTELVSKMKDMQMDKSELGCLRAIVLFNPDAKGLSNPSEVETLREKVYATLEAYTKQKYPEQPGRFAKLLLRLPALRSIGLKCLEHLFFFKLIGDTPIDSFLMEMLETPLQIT

TFAP4 = biological target: T3, TFAP4 (UniProt Q01664)
T3 sequence: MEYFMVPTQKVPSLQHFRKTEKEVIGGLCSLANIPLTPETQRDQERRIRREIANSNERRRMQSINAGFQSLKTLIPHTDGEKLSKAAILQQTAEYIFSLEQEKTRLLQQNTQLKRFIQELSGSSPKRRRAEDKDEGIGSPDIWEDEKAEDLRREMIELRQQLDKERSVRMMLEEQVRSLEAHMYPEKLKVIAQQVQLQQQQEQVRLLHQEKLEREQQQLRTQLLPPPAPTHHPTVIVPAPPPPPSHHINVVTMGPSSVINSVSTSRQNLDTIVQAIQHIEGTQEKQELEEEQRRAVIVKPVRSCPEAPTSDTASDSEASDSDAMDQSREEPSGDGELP

[4] = biological target: T4, glucocorticoid modulatory element binding protein 1 (murine) (UniProt Q9JL60)
T4 sequence: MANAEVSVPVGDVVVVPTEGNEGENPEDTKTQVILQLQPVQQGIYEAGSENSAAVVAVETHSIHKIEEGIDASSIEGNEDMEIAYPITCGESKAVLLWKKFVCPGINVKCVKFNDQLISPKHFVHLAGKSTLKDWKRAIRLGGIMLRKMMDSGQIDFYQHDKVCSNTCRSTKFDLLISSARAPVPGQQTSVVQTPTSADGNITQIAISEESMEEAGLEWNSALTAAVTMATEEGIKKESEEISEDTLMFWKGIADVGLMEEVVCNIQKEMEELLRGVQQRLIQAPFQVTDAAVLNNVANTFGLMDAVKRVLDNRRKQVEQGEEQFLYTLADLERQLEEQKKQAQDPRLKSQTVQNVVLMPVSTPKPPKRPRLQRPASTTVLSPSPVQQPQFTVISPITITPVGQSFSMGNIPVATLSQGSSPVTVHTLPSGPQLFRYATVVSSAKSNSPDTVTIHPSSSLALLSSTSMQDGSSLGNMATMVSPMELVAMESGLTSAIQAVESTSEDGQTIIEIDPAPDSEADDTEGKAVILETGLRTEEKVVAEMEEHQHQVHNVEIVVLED

[5] = biological target: msh homeobox MSX1 (murine) (UniProt P13297)
nuclear TF Y-γ (murine) = biological target: T5, nuclear TF Y-γ (murine) (UniProt P70353)
T5 sequence: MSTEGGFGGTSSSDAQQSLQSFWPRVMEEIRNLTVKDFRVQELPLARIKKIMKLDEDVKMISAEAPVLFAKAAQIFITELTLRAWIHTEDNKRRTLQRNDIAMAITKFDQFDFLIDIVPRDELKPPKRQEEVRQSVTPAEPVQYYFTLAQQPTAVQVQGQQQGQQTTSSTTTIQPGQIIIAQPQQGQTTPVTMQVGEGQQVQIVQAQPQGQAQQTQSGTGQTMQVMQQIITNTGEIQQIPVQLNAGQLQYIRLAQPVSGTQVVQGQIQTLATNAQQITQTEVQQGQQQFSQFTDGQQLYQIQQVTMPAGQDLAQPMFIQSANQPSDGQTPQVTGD

[6] = biological target: paired-related homeobox 2 (UniProt Q99811)
[7] = biological target: T6, zinc finger and BTB domain containing 11 (murine) (UniProt G5E8B9)
T6 sequence: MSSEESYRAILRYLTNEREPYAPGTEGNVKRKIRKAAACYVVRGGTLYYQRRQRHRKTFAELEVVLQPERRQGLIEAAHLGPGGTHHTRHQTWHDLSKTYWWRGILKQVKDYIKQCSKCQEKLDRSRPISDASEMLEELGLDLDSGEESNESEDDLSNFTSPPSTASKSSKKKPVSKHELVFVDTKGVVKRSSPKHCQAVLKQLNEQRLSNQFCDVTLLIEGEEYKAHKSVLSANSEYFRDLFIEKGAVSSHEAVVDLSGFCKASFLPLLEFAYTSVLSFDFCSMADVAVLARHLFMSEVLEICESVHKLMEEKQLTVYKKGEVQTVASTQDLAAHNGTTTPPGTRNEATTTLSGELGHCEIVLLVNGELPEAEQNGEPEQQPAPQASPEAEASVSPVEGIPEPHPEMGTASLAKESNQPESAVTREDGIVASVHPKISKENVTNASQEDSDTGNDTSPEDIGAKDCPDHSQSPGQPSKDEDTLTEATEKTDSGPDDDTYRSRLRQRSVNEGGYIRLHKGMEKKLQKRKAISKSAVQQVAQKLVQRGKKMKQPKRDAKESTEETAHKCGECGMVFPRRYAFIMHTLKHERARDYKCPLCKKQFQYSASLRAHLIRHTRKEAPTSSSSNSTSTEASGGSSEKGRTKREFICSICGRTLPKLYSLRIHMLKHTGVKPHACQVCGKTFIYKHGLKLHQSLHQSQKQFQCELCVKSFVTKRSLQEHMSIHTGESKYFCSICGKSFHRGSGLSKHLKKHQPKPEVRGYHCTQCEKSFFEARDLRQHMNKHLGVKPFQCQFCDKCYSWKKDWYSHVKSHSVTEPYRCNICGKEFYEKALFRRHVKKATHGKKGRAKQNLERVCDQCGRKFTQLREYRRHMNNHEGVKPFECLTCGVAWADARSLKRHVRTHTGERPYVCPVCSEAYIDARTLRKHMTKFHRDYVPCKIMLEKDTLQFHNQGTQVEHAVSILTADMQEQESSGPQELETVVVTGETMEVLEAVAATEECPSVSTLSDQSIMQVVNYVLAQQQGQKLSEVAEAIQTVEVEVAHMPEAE

Substance: NKX2-5 R189G (from UniProt P52952 1-324)
binding [1]: binds

Substance: NKX2-5 wild type (from UniProt P52952 1-324)
binding [2]: binds
binding (IKZF3): binds
binding (IKZF5): binds
binding [3]: no binding
binding (NKX2-5 wild type): binds
binding (RXRγ): no binding
binding (TFAP4): no binding
binding [4]: no binding
binding [5]: no binding
binding (nuclear TF Y-γ (murine)): no binding
binding [6]: binds
binding [1]: binds
binding [7]: no binding

The remaining lines, values ahead:

binding [1]: binds
Substance: NKX2-5 N188K (from UniProt P52952 1-324)

binding [1]: binds
Substance: NKX2-5 Q187H (from UniProt P52952 1-324)

binding [1]: binds
Substance: NKX2-5 R190H (from UniProt P52952 1-324)

Source: publication PMC5043580
